Experimental data: the RNAGym collection of RNA variant scans (doi:10.1093/nar/gkz1192)
Read counts are not given, so values of variants with three or more changes are uncertain.

B1: CPEB3 Ribozyme (parent)
chain: UAACAGGGGGCCACAGCAGAAGCGUUCACGUCGCAGCCCCUGUCAGAUUCUGGUGAAUCUGCGAAUUCUGCUGUAUAUCUC

Variants of: B1
Assay: self-cleavage, relative activity (ratio to wild type); higher = more cleavage; in vitro, sequencing
How it was run: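 For each CPEB3 ribozyme variant, relative activity is its cleaved/total read fraction divided by the unmutated ribozyme's. Barcoded error-prone PCR libraries were transcribed by T7 RNA polymerase (5 hours, 37°C) and held in DNase I for 15 min before an EDTA stop, with cleavage occurring throughout. Template-switching reverse transcription and Illumina sequencing were used to read the RNAs. A 5-read minimum applied, and results are the mean of three batches.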

Variant | self-cleavage
A5G A20G U41A A56G C62A | 0.07
A5G A20G U41C U74A | 0.39
A5G A20G U43C | 0.11
A5G A20G U43C U48C | 0.13
A5G A20G U43C U54A U67C | 0.31
A5G A20G U48A U49C A57G | 0.34
A5G A20G U48C A64U U76C | 0.12
A5G A20G U51A A64U U69C | 0.22
A5G A20U A35G U60C | 0.26
A5G A20U A77G | 0.34
A5G A20U U25C U31A U49G C81U | 0.08
A5G A20U U26C G30A | 0.4
A5G A20U U49C U60C | 0.22
A5G A20U U51C | 0.34
A5G A21G A35G A45U U48C U66C U78C | 0.1
A5G A21G A45U U48C | 0.07
A5G A21G A45U U51A | 0.22
A5G A21G A56G | 0.42
A5G A21G A64G C79A | 0.47
A5G A21G C29U A77G U78C | 0.07
A5G A21G C34G G36A A56G | 0.07
A5G A21G C37U U58C | 0.52
A5G A21G C40U A57G U60C A64G | 0.29
A5G A21G C44U U54A | 0.52

Variant | self-cleavage
A5G A21G C68A U69G | 0.14
A5G A21G U26C A56U | 0.28
A5G A21G U26C C34A C39U G52A A77G | 0.27
A5G A21G U41C A45G U67C U80C | 0.02
A5G A21G U41C U54C | 0.4
A5G A21G U43A U69G A75U | 0.08
A5G A21G U48C A57U A77G | 0.24
A5G A21U A45C U69C | 0.05
A5G A28G A35G | 0.71
A5G A28G A64G U76C | 0.41
A5G A28G U31C U41A | 0.09
A5G A28G U43C A45G U72C | 0.67
A5G A28G U54C G55U | 0.32
A5G A28U A35G A64G | 1.12
A5G A28U A45C | 0.28
A5G A28U A57G | 0.18
A5G A28U C32A U43C U78C | 0.05
A5G A28U G42A A47G A77G | 0.05
A5G A28U U31A U72C | 0.14
A5G A28U U60C | 0.1
A5G A28U U72A | 0.36
A5G A28U U76A A77U | 0.48
A5G A28U U78C | 0.69
A5G A35C A56G | 0.4

Variant | self-cleavage
A5G A35C U74C A77G | 0.83
A5G A35G A65U | 0.53
A5G A35G G36A | 0.85
A5G A35G U41C A45U U74C | 1.11
A5G A35G U49A U58A | 0.37
A5G A35G U51C U67A U72C U80C | 0.25
A5G A35G U67A A77G | 0.97
A5G A35G U67G U76C A77G | 0.98
A5G A35U A57G | 0.16
A5G A35U U41G U67C A75U | 0.27
A5G A35U U43A G63U | 0.33
A5G A35U U51G | 0.19
A5G A35U U74C | 0.4
A5G A45G A56G A57G U69A | 0.08
A5G A45G U48A U51C | 0.48
A5G A45G U54C U69C | 0.22
A5G A45G U60C U66C | 0.12
A5G A45G U67C U78G | 0.16
A5G A45U A56U U76C | 0.11
A5G A45U C62U U76C | 0.12
A5G A45U C68A C81A | 0.1
A5G A45U U60C A65G | 0.17
A5G A45U U69A U80C | 0.44
A5G A45U U69G | 0.29

Variant | self-cleavage
A5G A47G U58A | 0.21
A5G A47G U60G | 0.54
A5G A47G U67A U76G | 0.06
A5G A47G U78C | 0.53
A5G A47U A65U | 0.22
A5G A47U G53A A56U U60C U72C | 0.09
A5G A56G C59G C62U | 0.26
A5G A56G U69C | 0.26
A5G A56U U69A | 0.39
A5G A56U U72A | 0.16
A5G A57G A64G | 0.78
A5G A57G A64G U67C U72C A75G | 0.2
A5G A57G U60A U67C A77U | 0.11
A5G A64G U69C | 0.16
A5G A64U U80A | 0.61
A5G A75G U78C | 0.22
A5G A75U A77G | 0.59
A5G C11A C62U A64U | 0.16
A5G C11G C39U | 0.25
A5G C11U A45G U60A | 0.07
A5G C11U C40G A57U A65G | 0.26
A5G C11U U25C | 0.33
A5G C12A A15U A21G A45G U67C A77U | 0.08
A5G C12G A13G A45U U69A U80C | 0.34

Variant | self-cleavage
A5G C12G U60C U80C | 0.09
A5G C12U A18G A28U | 0.22
A5G C12U C14G | 0.89
A5G C12U C23U A45U U60A U67C | 0.08
A5G C12U C38U U67C | 0.22
A5G C12U C71A | 0.15
A5G C12U G46A A56G | 0.07
A5G C14A G30A | 0.34
A5G C14A G33A A35G U41A U51A | 0.06
A5G C14G A15C U60C | 0.06
A5G C14G U41A U43C U60C U66C | 0.13
A5G C14U C40U | 0.39
A5G C14U U26C | 0.47
A5G C14U U54A A57G U60C U69C U74C | 0
A5G C17U U25C A35G A64U U72C | 0.18
A5G C17U U26A U51A A64G | 0.52
A5G C23A A57G | 0.1
A5G C23A U25C U51C U60A U66C U80C | 0.09
A5G C23A U26A A75U | 0.26
A5G C23A U43G U49C U60G U80C | 0.09
A5G C23A U54G U66C | 0.3
A5G C23G U43C U54C U72A | 0.05
A5G C23U A28G C29A A35U U54C G55U | 0.12
A5G C23U U25C A35G U43C A56U | 0.26

Variant | self-cleavage
A5G C23U U25C A35U A57U U58A | 0.26
A5G C27A U43C U60C | 0.14
A5G C27G C34G C38U A45G A56U U69A | 0.1
A5G C27U U31C U51G A57G A77U | 0.06
A5G C29U A56G U78C | 0.5
A5G C32U U41A U43A | 0.38
A5G C32U U43A U80C | 0.11
A5G C34A A45G A77G | 0.1
A5G C34U U41A | 0.25
A5G C34U U54A U60C U69C | 0.22
A5G C38A U78C | 0.32
A5G C38G A56G | 0.52
A5G C38U U78C | 0.27
A5G C39G U76G | 0.39
A5G C40U U48C | 0.47
A5G C40U U48C U49C U74C U80C | 0.07
A5G C50U U76A | 0.61
A5G C62A U72G | 0.22
A5G C68G U74A | 0.14
A5G G6A A20G C34A A57G | 0.07
A5G G6A C38U U54C U76C | 0.19
A5G G6C A13G A18C U80C | 0.03
A5G G6U A35G A56G | 0.65
A5G G7A A13G A20G | 0.5

Variant | self-cleavage
A5G G7A A13G A35G A45G | 0.12
A5G G7A U54A A56G U69C | 0.14
A5G G7C C12G A77U | 0.07
A5G G7C G10A A13U A15G U67C U74C | 0.09
A5G G7C G10C A35C U48C | 0.35
A5G G7U A75G | 0.33
A5G G7U C12U A13G U72C | 0.05
A5G G7U G9C G16C U43A U66C U78A | 0.06
A5G G7U U31C U72C | 0.04
A5G G7U U60C U72C | 0.05
A5G G8A A15G C71U | 0.14
A5G G8A C32U U48C A65U U78C | 0.05
A5G G8A G61C | 0.09
A5G G8A U25C U58C U60G U67C | 0.07
A5G G8U A13U A47C U51A C59A A75U | 0.07
A5G G9A A45G U69C | 0.08
A5G G9A A45U C62A U76C | 0.07
A5G G9A G22U U26C A45G U54G G73A | 0.06
A5G G9A U25C U31C U51A | 0.1
A5G G9A U48C | 0.37
A5G G9A U49C A56G | 0.26
A5G G9C A20U U41C U76A | 0.09
A5G G9C U25C A35G U69C | 0.06
